{
  "source": "PubChem BioAssay (Tox21)",
  "key": {"[1]": {"assay": "qHTS assay to identify small molecule agonists of H2AX - cell viability counter screen (AID 1224847; calls by dose curve; note: nearly all actives have a fitted effect of over 30% in size; note: potency is the fitted concentration of half-maximal effect; tags give direction and shape of the fitted curve)", "outline": "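Quantitative HTS viability measurement: CHO-K1 wild-type cells in serum (10% FBS) medium, short 3 hr drug exposure at 37C with 0.76% DMSO, CellTiter-Glo luminescent detection.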"}, "[2]": {"assay": "qHTS assay to identify small molecule agonists of the hypoxia (HIF-1) signaling pathway (AID 1224846; active = well fitted activation curve with a large enough effect in the signal ratio in the repeat runs, not every such curve was filed as active; inconclusive = weak or mixed curves; the % refers to the signal ratio; note: potency is the fitted concentration of half-maximal effect; tags give direction and shape of the fitted curve or compound fluorescence and quenching; for activation: % is set by controls: 0 for no effect and ±100 for the full control effect)", "details": "HRE-bla ME-180 cells, beta-lactamase ratio, 17 h; activation: at 76.8 µM (top of the series) unless noted", "outline": "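Agonist mode reporter screen. ME-180 cells stably expressing bla under HRE control received test compounds in DMSO for 17 hrs (37C, 5% CO2), and beta-lactamase activity was then detected with the CCF4-AM FRET substrate.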"}, "[3]": {"assay": "qHTS RealTime-Glo MT Cell Viability Assay in HEK293 cells - 40 hour (AID 1224874); note: nearly all actives have a fitted effect of over 50% in size; note: potency is the fitted concentration of half-maximal effect; tags give direction and shape of the fitted curve; for max response: % is set by controls: 0 for no effect and ±100 for the full control effect", "details": "RealTime-Glo luminescence; max response: hits give low values", "outline": "(§1)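 600 HEK293 cells per well, dispensed already mixed with RealTime-Glo MT reagents. Compound dosing came 5 h later. The same wells were read for luminescence at 0, 8, 16, 24, 32 and 40 h of exposure at 37 C.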"}, "[4]": {"assay": "A CellTox Green Cytotoxicity Assay to monitor cytotoxicity in HEK293 cells - 24 hour (AID 1224875)", "outline": "(§2)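 Dead-cell fluorescence measured kinetically: asymmetric cyanine dye, HEK293, 600 cells/well, 5 h settle, 23 nL cpd/DMSO, 37 C, reads 0–40 h every 8 h.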"}, "[5]": {"assay": "A CellTox Green Cytotoxicity Assay to monitor cytotoxicity in HepG2 cells - 16 hour (AID 1224876)", "outline": "(§3)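 First, HepG2 cells (600/well) mixed with reagent were plated; second, after 5 h at 37 C they received compounds via pintool; third, fluorescence was measured at 0 h through 40 h at 8 h intervals.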"}, "[6]": {"assay": "A CellTox Green Cytotoxicity Assay to monitor cytotoxicity in HepG2 cells - 24 hour (AID 1224878)", "outline": "as §3"}, "[7]": {"assay": "A CellTox Green Cytotoxicity Assay to monitor cytotoxicity in HepG2 cells - 40 hour (AID 1224879)", "outline": "as §3"}, "[8]": {"assay": "A CellTox Green Cytotoxicity Assay to monitor cytotoxicity in HEK293 cells - 32 hour (AID 1224881)", "outline": "as §2"}, "[9]": {"assay": "qHTS assay to identify small molecule antagonists of the estrogen related receptor (ERR) signaling pathway from Tox21 library (AID 1224848)", "outline": "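ERR cell line, 2,000 cells/well. 6 h settle, then compound (DMSO) added; 18 h at 37 C; ONE-Glo luminescence after 30 min RT.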"}, "[10]": {"assay": "qHTS RealTime-Glo MT Cell Viability Assay in HepG2 cells - 24 hour (AID 1224867)", "outline": "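Cells + NanoLuc/prosubstrate dispensed (600 cells/well) → 5 h at 37 C/5% CO2 → compounds in DMSO transferred → 40 h incubation at 37 C, luminescence read at 0, 8, 16, 24, 32, 40 h.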"}, "[11]": {"assay": "qHTS RealTime-Glo MT Cell Viability Assay in HEK293 cells - 32 hour (AID 1224868)", "outline": "(§4)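 Tox21 10K qHTS, HEK293, 600 cells/well, RealTime-Glo reagent co-dispensed with cells; 5 h preincubation, compound by pintool, 37 C, luminescence at 0–40 h.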"}, "[12]": {"assay": "qHTS RealTime-Glo MT Cell Viability Assay in HepG2 cells - 40 hour (AID 1224870)", "outline": "(§5)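 Real-time viability: cells seeded at 600 per well together with NanoLuc and cell-permeant prosubstrate, compounds added after 5 h incubation. Luminescence tracked at 0, 8, 16, 24, 32 and 40 h of exposure.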"}, "[13]": {"assay": "qHTS RealTime-Glo MT Cell Viability Assay in HEK293 cells - 0 hour (AID 1224880)", "outline": "as §1"}, "[14]": {"assay": "A CellTox Green Cytotoxicity Assay to monitor cytotoxicity in HEK293 cells - 40 hour (AID 1224871)", "outline": "as §2"}, "[15]": {"assay": "qHTS RealTime-Glo MT Cell Viability Assay in HEK293 cells - 16 hour (AID 1224872)", "outline": "as §4"}, "[16]": {"assay": "qHTS RealTime-Glo MT Cell Viability Assay in HepG2 cells - 8 hour (AID 1224873)", "outline": "as §5"}},
  "note": "“And” between values parts separate entries of the source, which are not always exact repeats. Identical values can stand only once. The inconclusive results got no clear call from the source; some entries with a clear call stand among them for comparison. For part of these data: Where the call is inconclusive, the potency comes from a doubtful curve fit. The source made the active and inactive calls. Unless noted, calls come from the whole dose curve; as a rule, active = well fitted curve in the direction sought with a large enough effect in the repeat runs; inconclusive = weak or mixed curves; inactive = no such curve, though single readings can be large; an effect the other way counts as inactive or inconclusive.",
  "data": [
    {"compound": "CCC(C)OC(C)CC", "note": "(stereo not drawn)", "values": [
      {"measurement": "Potency", "setting": "[1]", "value": "inconclusive: 132 µM [cytotoxic, single point]"}
    ]},
    {"compound": "C=C(C)CC(C)(C)C", "values": [
      {"measurement": "Potency", "setting": "[1]", "value": "inactive"}
    ]},
    {"compound": "O=C(Nc1ncc([N+](=O)[O-])s1)c1cccs1", "values": [
      {"measurement": "Potency", "setting": "[2]", "value": "inconclusive: 6.74 µM [falling, single point]"},
      {"measurement": "max response", "setting": "[3]", "value": "inactive: -20.9%"}
    ]},
    {"compound": "CCOC(=O)c1ccc(OCCN2C[C@H](O)[C@@H](O)[C@H](O)[C@H]2CO)cc1", "values": [
      {"measurement": "Potency", "setting": "[1]", "value": "inactive"}
    ]},
    {"compound": "CCCCCCCCCCCCCOS(=O)(=O)O", "values": [
      {"measurement": "Potency", "setting": "[2]", "value": "inconclusive: 61.6 µM"},
      {"measurement": "Potency", "setting": "[4]", "value": "active: 24.5 µM"},
      {"measurement": "Potency", "setting": "[5]", "value": "inconclusive: 54.9 µM [activator, partial curve, poor fit]"},
      {"measurement": "Potency", "setting": "[6]", "value": "inconclusive: 54.9 µM [activator, single point]"},
      {"measurement": "Potency", "setting": "[7]", "value": "inconclusive: 61.6 µM [activator, single point]"},
      {"measurement": "Potency", "setting": "[8]", "value": "inconclusive: 24.5 µM [activator, full curve, poor fit]"}
    ]},
    {"compound": "CCC(=O)OCc1ccccc1", "values": [
      {"measurement": "Potency", "setting": "[1]", "value": "inconclusive: 1.79 µM [cytotoxic, single point]"}
    ]},
    {"compound": "Nc1ncnc2c1ncn2[C@H]1CC[C@@H](CO)O1", "values": [
      {"measurement": "Potency", "setting": "[1]", "value": "inconclusive: 32.5 µM"}
    ]},
    {"compound": "CCCCOCCOCCSC#N", "values": [
      {"measurement": "Potency", "setting": "[2]", "value": "inactive"},
      {"measurement": "Potency", "setting": "[7]", "value": "inactive"}
    ]},
    {"compound": "CN1CCCN(C(c2ccccc2)c2ccc(Cl)cc2)CC1", "note": "(stereo not drawn)", "values": [
      {"measurement": "Potency", "setting": "[1]", "value": "inconclusive: 61.9 µM [cytotoxic, single point]"},
      {"measurement": "Potency", "setting": "[9]", "value": "inconclusive: 33.5 µM [inhibitor, single point]"},
      {"measurement": "Potency", "setting": "[10]", "value": "inconclusive: 23.9 µM [falling, single point]"},
      {"measurement": "Potency", "setting": "[11]", "value": "inconclusive: 26.8 µM [cytotoxic, single point]"},
      {"measurement": "Potency", "setting": "[12]", "value": "inconclusive: 26.8 µM [falling, single point]"},
      {"measurement": "Potency", "setting": "[3]", "value": "inconclusive: 26.8 µM [cytotoxic, single point]"},
      {"measurement": "Potency", "setting": "[5]", "value": "active: 23.9 µM"},
      {"measurement": "Potency", "setting": "[6]", "value": "active: 23.9 µM"},
      {"measurement": "Potency", "setting": "[7]", "value": "active: 21.3 µM"},
      {"measurement": "Potency", "setting": "[13]", "value": "inconclusive: 12 µM [rising, partial curve]"},
      {"measurement": "Potency", "setting": "[8]", "value": "active: 26.8 µM"}
    ]},
    {"compound": "CCC(=O)C1CC(C(C)C)CC=C1C", "note": "(stereo not drawn)", "values": [
      {"measurement": "Potency", "setting": "[2]", "value": "inconclusive: 24.5 µM [falling, single point]"},
      {"measurement": "Potency", "setting": "[5]", "value": "inconclusive: 5.49 µM [activator, partial curve, poor fit]"}
    ]},
    {"compound": "O=C(Cn1ccnc1[N+](=O)[O-])NCCO", "values": [
      {"measurement": "Potency", "setting": "[1]", "value": "inactive"}
    ]},
    {"compound": "CN(Cc1cnc2nc(N)nc(N)c2n1)c1ccc(C(=O)N[C@@H](CCC(=O)O)C(=O)O)cc1", "values": [
      {"measurement": "Potency", "setting": "[1]", "value": "active: 636 nM and active: 1.1 µM"}
    ]},
    {"compound": "CCN(C(=O)N(CC)c1ccccc1)c1ccccc1", "values": [
      {"measurement": "Potency", "setting": "[1]", "value": "inconclusive: 113 µM [cytotoxic, single point]"},
      {"measurement": "Potency", "setting": "[9]", "value": "inconclusive: 54.5 µM [inhibitor, partial curve]"},
      {"measurement": "Potency", "setting": "[11]", "value": "inconclusive: 49 µM [cytotoxic, single point]"},
      {"measurement": "Potency", "setting": "[14]", "value": "inconclusive: 54.9 µM [activator, single point]"},
      {"measurement": "Potency", "setting": "[15]", "value": "inconclusive: 43.6 µM [cytotoxic, partial curve]"},
      {"measurement": "Potency", "setting": "[3]", "value": "inconclusive: 49 µM [cytotoxic, single point]"}
    ]},
    {"compound": "CCCCCCC(O)CCCCCCCCCCC(=O)O", "note": "(stereo not drawn)", "values": [
      {"measurement": "Potency", "setting": "[1]", "value": "inactive"},
      {"measurement": "Potency", "setting": "[9]", "value": "inconclusive: 1.94 µM [inhibitor, partial curve, poor fit] and inconclusive: 61.1 µM [inhibitor, partial curve, poor fit]"},
      {"measurement": "Potency", "setting": "[5]", "value": "inconclusive: 21.9 µM [activator, single point]"},
      {"measurement": "Potency", "setting": "[6]", "value": "inconclusive: 21.9 µM [activator, single point]"}
    ]},
    {"compound": "CCCCCCCCCCCCCCCC[N+](C)(C)CCN(Cc1ccc(OC)cc1)c1ncccn1", "values": [
      {"measurement": "Potency", "setting": "[1]", "value": "active: 43.8 µM"},
      {"measurement": "Potency", "setting": "[10]", "value": "active: 6.74 µM"},
      {"measurement": "Potency", "setting": "[15]", "value": "active: 1.34 µM"},
      {"measurement": "Potency", "setting": "[16]", "value": "active: 10.7 µM"},
      {"measurement": "Potency", "setting": "[3]", "value": "active: 0.952 µM"},
      {"measurement": "Potency", "setting": "[4]", "value": "active: 8.49 µM"},
      {"measurement": "Potency", "setting": "[5]", "value": "active: 9.52 µM"},
      {"measurement": "Potency", "setting": "[6]", "value": "active: 6.74 µM"},
      {"measurement": "Potency", "setting": "[7]", "value": "active: 6.01 µM"}
    ]},
    {"compound": "O=C(O)c1cn(C2CC2)c2cc(N3CCNCC3)c(F)cc2c1=O", "values": [
      {"measurement": "Potency", "setting": "[1]", "value": "inactive"},
      {"measurement": "Potency", "setting": "[11]", "value": "inconclusive: 10.7 µM [rising, partial curve]"},
      {"measurement": "Potency", "setting": "[3]", "value": "inconclusive: 10.7 µM [rising, partial curve]"}
    ]},
    {"compound": "CC1(C)[C@@H](O[C@H]2O[C@H](C(=O)O)[C@@H](O)[C@H](O)[C@H]2O[C@@H]2O[C@H](C(=O)O)[C@@H](O)[C@H](O)[C@H]2O)CC[C@]2(C)[C@H]3C(=O)C=C4[C@@H]5C[C@@](C)(C(=O)O)CC[C@]5(C)CC[C@@]4(C)[C@]3(C)CC[C@@H]12", "values": [
      {"measurement": "Potency", "setting": "[1]", "value": "inactive"},
      {"measurement": "Potency", "setting": "[10]", "value": "inactive"}
    ]},
    {"compound": "c1ccc(CCCc2ccncc2)cc1", "values": [
      {"measurement": "Potency", "setting": "[1]", "value": "inconclusive: 80 µM [cytotoxic, partial curve]"},
      {"measurement": "Potency", "setting": "[11]", "value": "inactive"},
      {"measurement": "Potency", "setting": "[14]", "value": "inconclusive: 27.5 µM [activator, partial curve]"},
      {"measurement": "Potency", "setting": "[15]", "value": "inconclusive: 12.3 µM [cytotoxic, full curve]"},
      {"measurement": "max response", "setting": "[3]", "value": "inactive: -19.7%"},
      {"measurement": "Potency", "setting": "[4]", "value": "inconclusive: 38.9 µM [activator, partial curve]"},
      {"measurement": "Potency", "setting": "[6]", "value": "inconclusive: 21.9 µM [activator, partial curve]"},
      {"measurement": "Potency", "setting": "[7]", "value": "inconclusive: 24.5 µM [activator, partial curve]"},
      {"measurement": "Potency", "setting": "[8]", "value": "inconclusive: 34.7 µM [activator, partial curve]"}
    ]}
  ]
}
